# The campaign covered roughly 310,000 compounds. About 2,200 (0.71%) showed an effect of 50% or more. Effects have a minus sign here. The list shows a part of the results.
# Molecular target: human ether-à-go-go-related gene (hERG) potassium channel (human, UniProt Q12809)
# Test: primary screen, population patch clamp on CHO cells stably expressing hERG
# Chain of human ether-à-go-go-related gene (hERG) potassium channel (Q12809 whole entry, looked up): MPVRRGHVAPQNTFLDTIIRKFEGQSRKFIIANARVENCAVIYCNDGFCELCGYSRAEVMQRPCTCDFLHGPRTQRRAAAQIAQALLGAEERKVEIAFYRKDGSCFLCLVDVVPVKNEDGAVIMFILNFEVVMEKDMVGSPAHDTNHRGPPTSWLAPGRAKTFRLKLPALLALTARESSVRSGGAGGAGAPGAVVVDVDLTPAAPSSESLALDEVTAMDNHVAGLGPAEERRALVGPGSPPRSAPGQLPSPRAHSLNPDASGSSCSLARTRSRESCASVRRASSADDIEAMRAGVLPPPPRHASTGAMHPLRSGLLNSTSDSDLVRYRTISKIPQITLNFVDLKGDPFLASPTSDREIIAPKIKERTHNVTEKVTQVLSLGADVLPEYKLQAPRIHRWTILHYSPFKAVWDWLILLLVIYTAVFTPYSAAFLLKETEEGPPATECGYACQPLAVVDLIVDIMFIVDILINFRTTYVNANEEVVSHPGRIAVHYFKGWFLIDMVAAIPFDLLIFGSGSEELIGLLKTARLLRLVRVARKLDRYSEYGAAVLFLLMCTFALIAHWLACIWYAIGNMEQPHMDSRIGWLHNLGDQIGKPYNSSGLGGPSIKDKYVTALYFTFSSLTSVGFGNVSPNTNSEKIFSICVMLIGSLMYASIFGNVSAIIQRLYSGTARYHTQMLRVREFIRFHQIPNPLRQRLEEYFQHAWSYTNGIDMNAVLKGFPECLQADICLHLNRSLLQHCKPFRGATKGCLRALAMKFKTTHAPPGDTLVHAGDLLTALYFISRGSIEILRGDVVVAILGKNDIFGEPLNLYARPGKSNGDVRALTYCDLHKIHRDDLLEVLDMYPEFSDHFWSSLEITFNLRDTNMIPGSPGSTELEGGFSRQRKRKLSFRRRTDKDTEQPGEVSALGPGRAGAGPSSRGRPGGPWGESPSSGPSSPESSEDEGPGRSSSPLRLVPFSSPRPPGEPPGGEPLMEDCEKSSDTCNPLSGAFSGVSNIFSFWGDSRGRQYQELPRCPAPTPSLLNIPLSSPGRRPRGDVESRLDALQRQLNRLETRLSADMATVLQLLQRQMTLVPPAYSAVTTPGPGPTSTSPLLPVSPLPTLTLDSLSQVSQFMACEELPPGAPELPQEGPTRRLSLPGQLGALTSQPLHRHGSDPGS
row,SMILES,"hERG current change (%, negative = inhibition) at 1uM"
1,CC1CC(c2ccccc2)=Nc2ccccc2N1 (centres unmarked),13.6%
2,CCN(CC)S(=O)(=O)c1ccc(Cl)c(C(=O)Nc2cccnc2)c1,-17%
3,O=C1CN2NC(=S)N(c3ccccc3)C2=CN1c1ccc(Cl)cc1,12.7%
4,COc1ccc([N+](=O)[O-])cc1NC(=O)COC(=O)C1CC1,9.91%
5,COc1ccc(/C(C)=N/OCC(=O)N=Nc2c(O)[nH]c3ccc(Br)cc23)cc1,3.04%
6,Cc1cc(C)n(-c2nc(-c3cccc(Cl)c3)cs2)n1,4.61%
7,CC(C)(C)C(=O)NC1CCN(C(=O)N2CCCC2)CC1,15%
8,Cc1ccnc2ccc(SC(F)(F)F)cc12,-0.418%
9,CC(C)COP(=O)(OCC(C)C)C(O)c1ccc(F)cc1 (centres unmarked),7.09%
10,O=C(CSc1nnc2ccc(-c3ccc(F)cc3)nn12)N1CCCC1,4.22%
11,CN(C)C=O.NS(=O)(=O)c1cccc(NC(=O)CSc2nc3nc(-c4cccs4)cc(C(F)(F)F)c3c(=O)[nH]2)c1,9.16%
12,CNC(=S)N(Cc1cc2cc(C)cc(C)c2[nH]c1=O)C1CCCC1,5.88%
13,Cc1cnc(C(=O)OCC(=O)C23CC4CC(CC(C4)C2)C3)cn1,9.09%
14,COc1ccc(NC(=O)c2cccc(N3C(=O)c4cccc([N+](=O)[O-])c4C3=O)c2)cc1,12.4%
15,C[C@H](NC(=O)c1cc2cc(Cl)ccc2n1C)C(=O)N1CCC[C@H]1C(=O)O,10.8%
16,Cc1ccc(NC(=O)COC(=O)CN2C(=O)NC3(CCCC3)C2=O)cc1S(=O)(=O)N(C)C,7.79%
17,CC(=O)NC(=S)c1c(N)n(Cc2ccccc2)c(=O)n(C)c1=O,14.7%
18,CCc1nnc2c(N(C)S(=O)(=O)c3ccc(C)cc3)nc3ccccc3n12,10%
19,COc1ccccc1NC(=O)CSc1nnc(-c2ccoc2C)o1,13.7%

row,SMILES,"hERG current change (%, negative = inhibition) at 1uM"
1,CCCCn1nnnc1NCc1ccc(C)s1,15%
2,O=C(NC(=S)NCC1CCCO1)c1ccccc1 (centres unmarked),11.7%
3,Cc1ccc(Cl)cc1NC(=O)C1COc2ccccc2O1 (centres unmarked),19.1%
4,CC1Sc2ccc(S(=O)(=O)CCC(=O)NC3CCCCCC3)cc2NC1=O (centres unmarked),10.4%
5,C=CCn1c(O)c(/C(C)=N/N2CCN(C)CC2)c(=O)[nH]c1=O,15.4%
6,COc1ccccc1CCc1nnc(CCC(=O)N(C)Cc2ccncc2C)o1,16.2%
7,CCN(CC)S(=O)(=O)c1ccc(NN=C(C#N)C#N)cc1,-2.41%
8,CCOc1ccc(-c2nc(CSc3nnc(C)s3)cs2)cc1OC,12.2%
9,CC(=O)O[C@@H]1[C@H]2[C@@H](C[C@@H](C)[C@@H]3CCC(=O)[C@@]13C)OC(=O)[C@@H]2C,7.16%
10,O=C(Nc1nccs1)c1ccccn1,-2.14%
11,Cc1ccccc1OCc1nc(-c2ccc(-n3cccc3)cc2)no1,12.5%
12,O=C(NCCS(=O)(=O)N1CCN(c2ccccc2)CC1)c1cccc(F)c1,10.6%
13,Cl.c1ccc(CNc2ccc3c(c2)ncn3C2CCCCC2)nc1,-2.25%
14,O=C1NCCN(Cc2ccoc2)C1CC(=O)N(CCO)Cc1ccccc1 (centres unmarked),21%
15,O=C(CCC(=O)Nc1cccc(C(F)(F)F)c1)NCC1CCCO1 (centres unmarked),10%
16,CCOC(=O)c1c(-c2cccs2)csc1NC(=O)CCCC(=O)O,1.67%
17,CC1CN(C2CC(C)(C)NC(C)(C)C2)CCC1=O (centres unmarked),7.17%
18,O=C1N(Cc2cccnc2)C[C@@H]2C[C@@H](c3ccccc3C#Cc3ccccc3)N3CCC[C@@]123,-10.9%
19,C[C@H](C(=O)C=[N+]=[N-])N1C(=O)c2ccccc2C1=O,11.7%

row,SMILES,"hERG current change (%, negative = inhibition) at 1uM"
1,CC1=NC(=O)C(N=Nc2cccc(O)c2)N1c1ccccc1 (centres unmarked),8.56%
2,Cc1cc(/C(N)=N/OC(=O)Nc2cccc(C(F)(F)F)c2)no1,1.8%
3,COc1ccc(NC(=O)CC2C(=O)N(c3ccc(Cl)cc3)C(=S)N2CCc2ccncc2)cc1 (centres unmarked),4.39%
4,COc1ccc(CCNC(=O)CSc2nnc(-c3cccc(C)c3)o2)cc1OC,-23.5%
5,c1ccc(-n2ncc3c(NCCCN4CCOCC4)ncnc32)cc1,-2.81%
6,CC(=O)Nc1ccc(N2C(=O)CC(c3ccccc3)CC2=O)cc1,14.6%
7,Cc1ccc(OCC(=O)NNC(=O)c2ccc(NC(=O)C3CC3)cc2)c(C)c1,20.1%
8,Cc1nn2c(-c3cccc(NC(=O)c4ccco4)c3)nnc2c2ccccc12,6.45%
9,COc1ccccc1C(=O)NCC(=O)N/N=C/c1cc(Br)ccc1OCc1ccccc1,9.76%
10,O=C(COC(=O)CSc1ccc(Br)cc1)NCc1ccco1,3.71%
11,COc1cc(OC)cc(-c2c(C#Cc3ccsc3)c3cc(-c4cccc5[nH]ccc45)ccc3n2C)c1,8.82%
12,CCOC(=O)c1c(N=CN(C)C)c(C#N)n2c1CCC2,13.7%
13,O=C(NCC1COc2ccccc2O1)c1ccc(-n2cncn2)c([N+](=O)[O-])c1 (centres unmarked),-0.414%
14,COc1cc(CNc2ccccc2)c([N+](=O)[O-])cc1OC.O=C(O)C(=O)O,7.45%
15,CCC1(C)Cc2ccccc2C(=O)N1 (centres unmarked),15.5%
16,O=C(Nc1ccn(Cc2ccccc2F)n1)c1ccc(COc2ccc(Br)cc2)cc1,-2.55%
17,O=C(Cn1nnc(-c2ccc([N+](=O)[O-])cc2)n1)NNC(=O)c1ccccc1,16.9%
18,COC(=O)c1cc(NS(=O)(=O)c2ccc3c(c2)c(=O)n(C)c(=O)n3C)cc(C(=O)OC)c1,10.6%
